In publication PMC5670238 one finds binding data, which are given here for 3 molecules.

Assay [1] concerns the target T1, GST-Wisp(702-1373) (Drosophila) (UniProt Q9VYS4).
T1 sequence: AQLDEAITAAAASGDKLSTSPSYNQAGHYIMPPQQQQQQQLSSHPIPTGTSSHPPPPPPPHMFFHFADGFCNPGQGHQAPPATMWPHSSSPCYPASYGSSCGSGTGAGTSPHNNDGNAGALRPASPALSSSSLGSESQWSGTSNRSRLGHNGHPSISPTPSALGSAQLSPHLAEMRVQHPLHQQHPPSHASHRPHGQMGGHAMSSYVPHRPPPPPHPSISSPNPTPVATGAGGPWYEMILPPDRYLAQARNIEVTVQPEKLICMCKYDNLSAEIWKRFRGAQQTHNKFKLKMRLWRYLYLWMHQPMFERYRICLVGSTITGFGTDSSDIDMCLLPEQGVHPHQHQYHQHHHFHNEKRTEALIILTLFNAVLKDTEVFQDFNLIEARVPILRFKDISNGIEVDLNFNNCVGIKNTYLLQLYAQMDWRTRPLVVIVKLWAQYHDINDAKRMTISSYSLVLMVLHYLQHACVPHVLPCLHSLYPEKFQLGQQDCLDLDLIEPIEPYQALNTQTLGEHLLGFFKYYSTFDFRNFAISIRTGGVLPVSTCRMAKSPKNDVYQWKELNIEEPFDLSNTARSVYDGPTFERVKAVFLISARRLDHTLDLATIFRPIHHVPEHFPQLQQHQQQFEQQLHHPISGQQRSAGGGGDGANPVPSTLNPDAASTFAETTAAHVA
The assay can be described thus: pull-down; GST fusion proteins immobilised on glutathione-Sepharose 4B beads; in vitro translated HA-Aub fragments; 45 min at room temperature then 45 min at 4 °C; 50 mM Hepes pH 7.5, 600 mM NaCl, 0.2 mM EDTA, 1 mM DTT, 0.5% Nonidet P-40, 0.2 μg/μL RNase A; western blot with anti-HA; only the target purified. For orientation: A western blot detects proteins with antibodies after separation by electrophoresis.

The target of assay [2] is T2, GST-Wisp(1-713) (Drosophila) (UniProt Q9VYS4).
T2 sequence: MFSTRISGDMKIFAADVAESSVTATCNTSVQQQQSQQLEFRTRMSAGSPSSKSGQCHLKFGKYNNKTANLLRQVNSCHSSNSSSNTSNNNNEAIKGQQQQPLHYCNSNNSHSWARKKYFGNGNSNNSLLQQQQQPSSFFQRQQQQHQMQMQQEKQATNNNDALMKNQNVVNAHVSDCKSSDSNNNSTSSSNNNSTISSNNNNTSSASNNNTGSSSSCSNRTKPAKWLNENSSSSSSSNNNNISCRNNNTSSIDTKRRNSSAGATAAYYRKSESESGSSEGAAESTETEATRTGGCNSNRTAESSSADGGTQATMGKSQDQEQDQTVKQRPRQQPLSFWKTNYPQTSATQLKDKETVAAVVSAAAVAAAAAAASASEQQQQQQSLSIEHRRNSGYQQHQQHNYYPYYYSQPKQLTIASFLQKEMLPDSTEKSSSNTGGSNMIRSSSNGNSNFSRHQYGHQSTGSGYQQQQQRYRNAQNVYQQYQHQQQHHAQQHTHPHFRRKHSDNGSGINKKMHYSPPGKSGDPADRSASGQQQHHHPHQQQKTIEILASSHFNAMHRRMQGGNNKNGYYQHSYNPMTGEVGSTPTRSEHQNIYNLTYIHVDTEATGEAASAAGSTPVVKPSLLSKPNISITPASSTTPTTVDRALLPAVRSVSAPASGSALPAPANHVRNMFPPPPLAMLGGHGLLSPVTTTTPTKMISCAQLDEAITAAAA
The description is as above.

For assay [3], the target named is T3, GST-Wisp(636-746) (Drosophila) (UniProt Q9VYS4).
T3 sequence: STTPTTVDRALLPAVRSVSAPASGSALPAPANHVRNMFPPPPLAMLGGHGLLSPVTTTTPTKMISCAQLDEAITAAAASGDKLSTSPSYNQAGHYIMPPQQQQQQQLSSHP
The assay is described as above.

Assay [4] addresses T4, GST-Wisp(11-547) (Drosophila) (UniProt Q9VYS4).
T4 sequence: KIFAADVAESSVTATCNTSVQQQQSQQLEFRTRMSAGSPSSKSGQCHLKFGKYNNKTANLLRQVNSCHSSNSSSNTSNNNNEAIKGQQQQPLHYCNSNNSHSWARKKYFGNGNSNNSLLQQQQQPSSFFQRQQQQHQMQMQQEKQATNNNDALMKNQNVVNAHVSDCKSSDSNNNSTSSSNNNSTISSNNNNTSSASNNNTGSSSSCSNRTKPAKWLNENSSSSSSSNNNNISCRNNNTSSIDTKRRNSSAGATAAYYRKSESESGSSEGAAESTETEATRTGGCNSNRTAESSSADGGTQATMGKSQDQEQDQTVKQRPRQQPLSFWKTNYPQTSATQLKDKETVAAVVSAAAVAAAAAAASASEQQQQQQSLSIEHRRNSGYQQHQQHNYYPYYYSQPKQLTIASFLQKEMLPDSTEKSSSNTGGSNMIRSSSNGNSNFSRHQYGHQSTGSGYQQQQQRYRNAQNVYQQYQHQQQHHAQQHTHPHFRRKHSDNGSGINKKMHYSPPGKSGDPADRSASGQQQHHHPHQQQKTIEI
Described as above.

For assay [5], the target named is T5, GFP-Aub (Aubergine expressed from the UASp-GFP-Aub transgene with nos-Gal4) (Drosophila) (UniProt O76922).
T5 sequence: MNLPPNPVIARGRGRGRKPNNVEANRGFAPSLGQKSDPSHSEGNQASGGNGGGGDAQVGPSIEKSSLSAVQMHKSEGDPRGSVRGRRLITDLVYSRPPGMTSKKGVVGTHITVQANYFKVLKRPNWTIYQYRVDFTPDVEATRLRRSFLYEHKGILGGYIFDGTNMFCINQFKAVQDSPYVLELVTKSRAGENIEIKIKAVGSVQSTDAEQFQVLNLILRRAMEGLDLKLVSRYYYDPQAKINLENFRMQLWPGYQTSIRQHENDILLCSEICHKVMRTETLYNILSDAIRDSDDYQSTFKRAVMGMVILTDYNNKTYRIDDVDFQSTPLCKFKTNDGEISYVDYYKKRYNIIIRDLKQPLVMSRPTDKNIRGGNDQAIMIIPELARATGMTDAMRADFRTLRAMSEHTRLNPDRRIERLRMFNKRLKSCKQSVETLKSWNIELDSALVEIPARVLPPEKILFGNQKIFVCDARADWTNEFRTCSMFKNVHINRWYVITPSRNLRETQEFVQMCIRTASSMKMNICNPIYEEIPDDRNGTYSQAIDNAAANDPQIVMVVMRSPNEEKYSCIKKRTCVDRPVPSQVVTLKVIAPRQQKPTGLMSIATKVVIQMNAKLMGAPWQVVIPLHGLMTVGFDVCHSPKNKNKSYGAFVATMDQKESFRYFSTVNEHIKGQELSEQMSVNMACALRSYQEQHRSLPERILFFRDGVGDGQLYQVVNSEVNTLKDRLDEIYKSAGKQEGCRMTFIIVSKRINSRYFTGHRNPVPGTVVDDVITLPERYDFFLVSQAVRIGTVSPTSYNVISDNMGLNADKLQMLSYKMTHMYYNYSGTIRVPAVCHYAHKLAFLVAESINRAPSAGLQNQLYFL
Kind of assay: co-IP; anti-GFP (3E6) on Dynabeads protein A; extracts of UASp-GFP-Aub/nos-Gal4 0-2 h embryos in DXB-150 (25 mM Hepes-KOH pH 6.8, 150 mM NaCl, 0.1% Triton X-100), with RNase A or with RNase inhibitor; 3 h at 4 °C; western blot; w1118 embryos as mock.

Results are given in words; binding and its absence hold for the method and conditions named. Binding seen in cells or lysates may run through a third protein. Some results given as binding are weak or reduced against the parent protein; the word gives no strength. Where a sequence is shown, tags or fusion partners need not be part of it.

B1: HA-Aub(1-482) (domain or fragment, UniProt O76922 1-482)
chain: MNLPPNPVIARGRGRGRKPNNVEANRGFAPSLGQKSDPSHSEGNQASGGNGGGGDAQVGPSIEKSSLSAVQMHKSEGDPRGSVRGRRLITDLVYSRPPGMTSKKGVVGTHITVQANYFKVLKRPNWTIYQYRVDFTPDVEATRLRRSFLYEHKGILGGYIFDGTNMFCINQFKAVQDSPYVLELVTKSRAGENIEIKIKAVGSVQSTDAEQFQVLNLILRRAMEGLDLKLVSRYYYDPQAKINLENFRMQLWPGYQTSIRQHENDILLCSEICHKVMRTETLYNILSDAIRDSDDYQSTFKRAVMGMVILTDYNNKTYRIDDVDFQSTPLCKFKTNDGEISYVDYYKKRYNIIIRDLKQPLVMSRPTDKNIRGGNDQAIMIIPELARATGMTDAMRADFRTLRAMSEHTRLNPDRRIERLRMFNKRLKSCKQSVETLKSWNIELDSALVEIPARVLPPEKILFGNQKIFVCDARADWTNEFR
With B1, the binding entry in assay [1] was “binds”; in assay [2] it was “binds”; in assay [3], “binds”; in assay [4] it was “no binding”.

B2: HA-Aub(476-866) (domain or fragment, UniProt O76922 476-866)
chain: DWTNEFRTCSMFKNVHINRWYVITPSRNLRETQEFVQMCIRTASSMKMNICNPIYEEIPDDRNGTYSQAIDNAAANDPQIVMVVMRSPNEEKYSCIKKRTCVDRPVPSQVVTLKVIAPRQQKPTGLMSIATKVVIQMNAKLMGAPWQVVIPLHGLMTVGFDVCHSPKNKNKSYGAFVATMDQKESFRYFSTVNEHIKGQELSEQMSVNMACALRSYQEQHRSLPERILFFRDGVGDGQLYQVVNSEVNTLKDRLDEIYKSAGKQEGCRMTFIIVSKRINSRYFTGHRNPVPGTVVDDVITLPERYDFFLVSQAVRIGTVSPTSYNVISDNMGLNADKLQMLSYKMTHMYYNYSGTIRVPAVCHYAHKLAFLVAESINRAPSAGLQNQLYFL
As for B2, the binding result in assay [1], in assay [2], in assay [3] and in assay [4] was “no binding” in each case.

B3: Wispy (Wisp), germline-specific non-canonical poly(A) polymerase (enzyme, UniProt Q9VYS4 1-1373)
chain: MFSTRISGDMKIFAADVAESSVTATCNTSVQQQQSQQLEFRTRMSAGSPSSKSGQCHLKFGKYNNKTANLLRQVNSCHSSNSSSNTSNNNNEAIKGQQQQPLHYCNSNNSHSWARKKYFGNGNSNNSLLQQQQQPSSFFQRQQQQHQMQMQQEKQATNNNDALMKNQNVVNAHVSDCKSSDSNNNSTSSSNNNSTISSNNNNTSSASNNNTGSSSSCSNRTKPAKWLNENSSSSSSSNNNNISCRNNNTSSIDTKRRNSSAGATAAYYRKSESESGSSEGAAESTETEATRTGGCNSNRTAESSSADGGTQATMGKSQDQEQDQTVKQRPRQQPLSFWKTNYPQTSATQLKDKETVAAVVSAAAVAAAAAAASASEQQQQQQSLSIEHRRNSGYQQHQQHNYYPYYYSQPKQLTIASFLQKEMLPDSTEKSSSNTGGSNMIRSSSNGNSNFSRHQYGHQSTGSGYQQQQQRYRNAQNVYQQYQHQQQHHAQQHTHPHFRRKHSDNGSGINKKMHYSPPGKSGDPADRSASGQQQHHHPHQQQKTIEILASSHFNAMHRRMQGGNNKNGYYQHSYNPMTGEVGSTPTRSEHQNIYNLTYIHVDTEATGEAASAAGSTPVVKPSLLSKPNISITPASSTTPTTVDRALLPAVRSVSAPASGSALPAPANHVRNMFPPPPLAMLGGHGLLSPVTTTTPTKMISCAQLDEAITAAAASGDKLSTSPSYNQAGHYIMPPQQQQQQQLSSHPIPTGTSSHPPPPPPPHMFFHFADGFCNPGQGHQAPPATMWPHSSSPCYPASYGSSCGSGTGAGTSPHNNDGNAGALRPASPALSSSSLGSESQWSGTSNRSRLGHNGHPSISPTPSALGSAQLSPHLAEMRVQHPLHQQHPPSHASHRPHGQMGGHAMSSYVPHRPPPPPHPSISSPNPTPVATGAGGPWYEMILPPDRYLAQARNIEVTVQPEKLICMCKYDNLSAEIWKRFRGAQQTHNKFKLKMRLWRYLYLWMHQPMFERYRICLVGSTITGFGTDSSDIDMCLLPEQGVHPHQHQYHQHHHFHNEKRTEALIILTLFNAVLKDTEVFQDFNLIEARVPILRFKDISNGIEVDLNFNNCVGIKNTYLLQLYAQMDWRTRPLVVIVKLWAQYHDINDAKRMTISSYSLVLMVLHYLQHACVPHVLPCLHSLYPEKFQLGQQDCLDLDLIEPIEPYQALNTQTLGEHLLGFFKYYSTFDFRNFAISIRTGGVLPVSTCRMAKSPKNDVYQWKELNIEEPFDLSNTARSVYDGPTFERVKAVFLISARRLDHTLDLATIFRPIHHVPEHFPQLQQHQQQFEQQLHHPISGQQRSAGGGGDGANPVPSTLNPDAASTFAETTAAHVA
B3: the binding result in assay [5] is reported as “binds”.
